Results from the RNAGym collection of RNA variant scans (doi:10.7554/elife.90254).
Read counts are not given, so values of variants with three or more changes are uncertain.

B1: LINE1-mini (parent)
chain: GGCAGAGCUCAACACAGCGUGGCAAAGUGGCUGUGGCUAGACUGCC

Variants of: B1
Assay: self-cleavage, relative activity (ratio to wild type); higher = more cleavage; in vitro, sequencing; the parent is a self-cleaving ribozyme
G1A C31G G33A G44A gave a self-cleavage of 0.04.
Work on G1A U20G G22C A24U G29C C37A yielded a self-cleavage of 0.02.
For G1A C10A A41U C45A, the self-cleavage was 0.01.
For G1A A11C C23G, the self-cleavage was 0.02.
G1A G19U U28C C37G showed a self-cleavage of 0.01.
For G1A A25G G27A, the self-cleavage was 0.06.
G1A C8U C18A G22C G29A G36U A39C showed a self-cleavage of 0.91.
With G1A C10U U20G A26G the self-cleavage was 0.68.
In the case of G1A C3A A6G G35C, the self-cleavage is reported as 0.69.
For G1C A11G C13G A16C, the self-cleavage was 0.01.
In the case of G1C A25C G36C, the self-cleavage is reported as 0.
In the case of G1C A24U A26C, the self-cleavage is reported as 0.42.
With G1A C10A C37U the self-cleavage was 0.05.
For G1A G7A A16C G19A C31U, the self-cleavage was 1.5.
G1A A12G A24U G40A C46U showed a self-cleavage of 0.04.
G1A G5C C15A A16C C18A G29A C46U gave a self-cleavage of 0.02.
Work on G1A U20C G30A G40U yielded a self-cleavage of 0.02.
In the case of G1A C23G G33U, the self-cleavage is reported as 0.65.
In the case of G1A A6U U32A U43C, the self-cleavage is reported as 0.04.
With G1A C10U A12U C31A C46U the self-cleavage was 0.11.
With G1C A12C C37A G44A C46A the self-cleavage was 0.
Variant G1A G2A C31A has a self-cleavage of 0.16.
With G1C A4U G5C G7C U38G A41C the self-cleavage was 0.
G1A A4U A14C G27C A41C gave a self-cleavage of 0.05.
G1A C15U G27C U38A showed a self-cleavage of 0.57.
G1A G33C G35U C37G showed a self-cleavage of 0.04.
In the case of G1A G19U G29U, the self-cleavage is reported as 1.79.
With G1C A26G G30C U34G A39C G40A the self-cleavage was 0.
With G1A G2U C37A G40U the self-cleavage was 0.05.
Work on G1A A4G U9A C18A C42U yielded a self-cleavage of 0.61.
Work on G1A A41C C42A C45G yielded a self-cleavage of 0.03.
G1C A14U G19A A26C gave a self-cleavage of 0.11.
In the case of G1A A6G A14G U28G C42G, the self-cleavage is reported as 0.01.
For G1A G22A C37U, the self-cleavage was 0.02.
Variant G1C A6U C37A C46A has a self-cleavage of 0.02.
Variant G1A C15A C46U has a self-cleavage of 0.15.
Variant G1A A24U G40C has a self-cleavage of 0.09.
G1A G22C U43A showed a self-cleavage of 0.03.
G1A A4C C10A A14C gave a self-cleavage of 0.03.
G1C A4C A25G C31U gave a self-cleavage of 0.01.
Variant G1C A11U A24U has a self-cleavage of 0.02.
G1A U9G G29U showed a self-cleavage of 0.54.
In the case of G1C A4U A24G, the self-cleavage is reported as 0.05.
For G1A C10A A11G A14C G36A G44U, the self-cleavage was 0.02.
Work on G1A C3U G5A A6G yielded a self-cleavage of 0.49.
Work on G1A A14C G29C G36A C37U yielded a self-cleavage of 0.06.
For G1A G7U A14U G35C G40C, the self-cleavage was 0.52.
G1A G2U C31U A41G G44U showed a self-cleavage of 0.02.
Variant G1A A4C C8A U32G G40U U43C C46A has a self-cleavage of 0.12.
G1A G2C G21C A41U C42G U43A gave a self-cleavage of 0.02.
For G1C A16G G40U, the self-cleavage was 0.
G1A C15U A16U C18G G29A G30A C31A showed a self-cleavage of 0.01.
G1A A6C U9A U20A A39G U43G gave a self-cleavage of 0.03.
Work on G1A C3U G5U A12C C46A yielded a self-cleavage of 0.12.
With G1A G5U A6C G19U G30U G44A the self-cleavage was 0.05.
With G1A G2A A41U the self-cleavage was 1.87.
In the case of G1A C23U U28G, the self-cleavage is reported as 0.07.
Work on G1A A11C A16U C18U C31A U34C yielded a self-cleavage of 0.01.
In the case of G1A C15A U28A C31G, the self-cleavage is reported as 0.02.
G1A G5U A12U G36C gave a self-cleavage of 0.03.
Work on G1A A14C U20G C46U yielded a self-cleavage of 0.09.
G1A G2U G19U C42U showed a self-cleavage of 0.02.
Work on G1C A11U C23A G30A yielded a self-cleavage of 0.02.
For G1C A11G G35U A41C, the self-cleavage was 0.01.
For G1A C10A G21C C45U, the self-cleavage was 0.02.
For G1A G33C C42A, the self-cleavage was 0.
Work on G1A C23A A26C yielded a self-cleavage of 0.35.
G1A C10A C13G C31U G33U G36U gave a self-cleavage of 0.04.
G1C A12C G30A G36C gave a self-cleavage of 0.01.
In the case of G1A G22A U32C U43A, the self-cleavage is reported as 0.07.
Variant G1A C15U G33U G35U has a self-cleavage of 0.11.
Work on G1A C23A G33U yielded a self-cleavage of 0.03.
Work on G1A C18A A26U G27U G30C yielded a self-cleavage of 0.92.
Work on G1A C18U C23G G27U G33A C45U yielded a self-cleavage of 0.01.
Work on G1C C3A C8A A14G G29U G36C C37G yielded a self-cleavage of 0.09.
In the case of G1C A6C G27U G44U, the self-cleavage is reported as 0.02.
With G1C A6C G22C C46G the self-cleavage was 0.12.
With G1A C18A G29U G35A the self-cleavage was 0.09.
Work on G1A C8G U9A C23G C42A yielded a self-cleavage of 0.18.
In the case of G1A G7U C8A A39G, the self-cleavage is reported as 0.16.
G1A G29U G40A showed a self-cleavage of 0.22.
G1A A14G A39U showed a self-cleavage of 0.08.
Variant G1C A4G U9A C13G G29A has a self-cleavage of 0.09.
Work on G1A G7A A14C G19C U28A yielded a self-cleavage of 0.03.
